Laboratory results published in PubChem BioAssay AID624296 (National Center for Advancing Translational Sciences (NCATS), 2012).
About 9,900 (2.8%) of roughly 350,000 compounds were called active. Inconclusive means that the source gave no clear call. Such entries were picked first, then a sample of the others. Calls come from the whole dose curve; as a rule, active = well fitted activation curve with a large enough effect; inconclusive = small, poorly fitted or top-dose-only effect; inactive = no such curve, though single readings can be large or run the other way. No potency is given beside an inconclusive call; the fits are too rough.

experiment: A quantitative high throughput screen for small molecules that induce DNA re-replication in MCF 10a normal breast cells.; note: nearly all actives have a fitted effect of over 50% in size; for activity, positive = re-replication: % of control where 0% means no effect; conditions: MCF 10A DNA re-replication, Hoechst nuclear intensity, 48 h; activity, positive = re-replication: at 46.1 µM (top of the series)
Potency is the fitted concentration of half-maximal effect; tags give direction and shape of the fitted curve.

Row | SMILES | Potency | activity, positive = re-replication
1 | O=C(OCC(=O)N1CCCCC1)c1cc(NS(=O)(=O)c2ccc(Cl)c([N+](=O)[O-])c2)ccc1O | inconclusive [activator, single point] | 
2 | COc1ccc(C#Cc2ccc3c(=O)c4ccccc4n(C)c3c2)cc1 | inconclusive [activator, single point] | 
3 | O=[N+]([O-])c1ccc(S(=O)(=O)NCC(c2ccco2)N2CCc3ccccc3C2)cc1 (stereo not given) |  | inactive: 11.4%
4 | CC(c1cccs1)N(C(=O)Nc1ccccc1)C1CCCCC1 (stereo not given) |  | inactive: -0.713%
5 | Cc1ccc(C2C(C#N)=C(N)Oc3cc4c(cc32)OCO4)cc1 (stereo not given) | inconclusive [activator, single point] | 
6 | Cc1cccn2c(=O)c3cc(C(=O)NC4CCS(=O)(=O)C4)n(Cc4ccccc4)c3nc12 (stereo not given) | active: 13 µM | 
7 | COc1ccc2[nH]c(C(=O)NCCCN3CCCC3=O)c(C)c2c1 |  | inactive: 22%
8 | COc1ccc(Cn2c(/C=C/c3ccccc3)nc3ccccc32)cc1 | inconclusive [activator, single point] | 
9 | CCc1cc(C(=O)Cc2nc3ccccc3s2)c(O)cc1OCC(=O)O | inconclusive [activator, single point] | 
10 | c1ccc2c(c1)CSc1ccccc1N2 |  | inactive: -1.89%
11 | CC(C)c1cc(C(=O)N/N=C/c2c[nH]c3ccccc23)n[nH]1 | inconclusive [activator, partial curve, poor fit] | 
12 | CCCN(CC(=O)Nc1cc(Cl)ccc1Cl)C(=O)CN1C(=O)C2CCCCC2C1=O (stereo not given) |  | inactive: 2.17%
13 | COc1ccc(-c2oc(=O)c3cc(OC)c(OC)cc3c2-c2cc(F)cc(OC)c2)cc1 | inconclusive [activator, partial curve, poor fit] | 
14 | CC(=O)Oc1ccc2ccccc2c1C(NC(=O)Cc1ccccc1)c1ccc(Cl)cc1 (stereo not given) | inconclusive [activator, single point] | 
15 | COCCN1CCN(Cc2nc(C3(c4ccc(C)cc4)CCCC3)no2)CC1 | inconclusive [activator, partial curve, poor fit] | 
16 | Cn1nc([N+](=O)[O-])nc1Oc1ccccc1F |  | inactive: -3.46%
17 | O=C(COC(=O)c1ccc(O)cc1O)c1ccc2c(c1)OCCO2 |  | inactive: -0.272%
18 | COc1cc(OC)cc(-c2nc3ccccc3c(=O)n2OC(=O)c2ccc(C)c(C)c2)c1 | inconclusive [activator, partial curve, poor fit] | 
19 | Cc1cc(C)cc(OCC(=O)Nc2ccncc2)c1 |  | inactive: 4.77%
20 | Cc1ccccc1C(=O)NNc1ccc(-c2csnn2)cc1 | active: 18.4 µM | 
21 | Cc1cc(N2CCOCC2)nc2ccc(NC(=S)N3CCN(c4ccccc4)CC3)cc12 |  | inactive: 211%
22 | CCCn1c(C(O)c2ccc(OC)c(OC)c2)nc2ccccc21 (stereo not given) | inconclusive [activator, single point] | 
23 | Cc1cc(Cl)ccc1Oc1cccc(C(=O)/C(C#N)=C/N(C)C)c1 | inconclusive [activator, partial curve, poor fit] | 

Row | SMILES | Potency | activity, positive = re-replication
24 | C/C(=N\NC(=O)c1ccco1)c1cc(Cl)sc1Cl | inconclusive [activator, single point] | 
25 | CC1=C(C(=O)N(C)C)C(c2ccc(N3CCOCC3)cc2)NC(=O)N1 (stereo not given) | active: 0.92 µM | 
26 | Cc1ccc(C)c(S(=O)(=O)Nc2ccccc2C(=O)Nc2cc(C)on2)c1 | inconclusive [activator, single point] | 
27 | CC(c1ccco1)N(C(=O)c1ccccc1NS(=O)(=O)c1ccc(Cl)cc1)c1ccccn1 (stereo not given) | inconclusive [activator, single point] | 
28 | C=CCNC(=O)c1ccc2c3n(nc2c1)-c1ccccc1CO3 |  | inactive: 1.29%
29 | CC(Sc1nnc(-c2ccccc2)c(-c2ccccc2)n1)C(=O)Nc1ncc(Cl)cc1Cl (stereo not given) | inconclusive [activator, partial curve, poor fit] | 
30 | Cc1ccc(-c2nc3n(n2)Cc2ccccc2-3)cc1 | inconclusive [activator, partial curve, poor fit] | 
31 | O=c1[nH]c2ccc(Cl)cc2c(-c2ccccc2)c1N1CCOCC1 | inconclusive [activator, single point] | 
32 | Cc1ccc(-n2nc3c(c2NC(=O)c2ccccc2Br)CS(=O)C3)cc1 (stereo not given) | inconclusive [activator, partial curve, poor fit] | 
33 | O=C(O)COc1ccc(Oc2ccccc2)cc1 |  | inactive: -3.4%
34 | S=C(Nc1ccc2nsnc2c1)N1CCCCC1 |  | inactive: 10.7%
35 | CC1(C)c2[nH]c3ccccc3c2C[C@@H]2C(=O)N(c3ccc(F)cc3F)C(=O)N21 | inconclusive [activator, single point] | 
36 | CC1=CC2=NC(=O)/C(=C\c3cc(C)n(-c4ccccc4)c3C)C(=N)N2O1 | inconclusive [activator, partial curve, poor fit] | 
37 | C=CCOC(=O)C1=C(C)NC(SCC(=O)OCC)=C(C#N)C1c1ccc(C)cc1 (stereo not given) |  | inactive: -0.999%
38 | COC1=C/C(=C/c2c(N)n3nc(-c4ccc(C)cc4)sc3nc2=O)C=CC1=O | inconclusive [activator, single point] | 
39 | Cc1ccc2oc(C(=O)N3CCC(O)(c4cccc(C(F)(F)F)c4)CC3)c(C)c2c1 | inconclusive [activator, partial curve, poor fit] | 
40 | COc1ccc(-c2cc(C(=O)NCc3ccco3)c3ccccc3n2)cc1OC | inconclusive [activator, partial curve, poor fit] | 
41 | CC(=O)c1cc2c(cc1NS(=O)(=O)c1ccc3c(c1)OCCO3)OCO2 | inconclusive [activator, single point] | 
42 | COc1ccc(NC(=O)CCC(=O)c2ccc(Cl)cc2)cn1 |  | inactive: 5.4%
43 | O=[N+]([O-])c1ccc(Oc2cccc(Br)c2)c2ccncc12 | inconclusive [activator, single point] | 
44 | CCc1ccccc1N1CC23C=CC(O2)C(C(=O)OC)C3C1=O (stereo not given) |  | inactive: -4.62%
45 | Cc1ccc2oc(=O)c3cnn(CC(=O)N(CCC(C)C)Cc4ccco4)c3c2c1 |  | inactive: 13.2%
